Test results taken from article PMC4336329 (PLoS ONE, 2015).
Among all 310,000 compounds or so, about 14,000 (4.5%) showed an effect of 50% or more. The effect is printed as a negative number. The list shows a part of the results.

Biological target: human ether-à-go-go-related gene (hERG) potassium channel (human, UniProt Q12809)
Assay: primary screen, population patch clamp on CHO cells stably expressing hERG
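Also: peak tail current of the secondary pulse compared with the same well before compound.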

human ether-à-go-go-related gene (hERG) potassium channel, sequence (Q12809 whole entry, looked up): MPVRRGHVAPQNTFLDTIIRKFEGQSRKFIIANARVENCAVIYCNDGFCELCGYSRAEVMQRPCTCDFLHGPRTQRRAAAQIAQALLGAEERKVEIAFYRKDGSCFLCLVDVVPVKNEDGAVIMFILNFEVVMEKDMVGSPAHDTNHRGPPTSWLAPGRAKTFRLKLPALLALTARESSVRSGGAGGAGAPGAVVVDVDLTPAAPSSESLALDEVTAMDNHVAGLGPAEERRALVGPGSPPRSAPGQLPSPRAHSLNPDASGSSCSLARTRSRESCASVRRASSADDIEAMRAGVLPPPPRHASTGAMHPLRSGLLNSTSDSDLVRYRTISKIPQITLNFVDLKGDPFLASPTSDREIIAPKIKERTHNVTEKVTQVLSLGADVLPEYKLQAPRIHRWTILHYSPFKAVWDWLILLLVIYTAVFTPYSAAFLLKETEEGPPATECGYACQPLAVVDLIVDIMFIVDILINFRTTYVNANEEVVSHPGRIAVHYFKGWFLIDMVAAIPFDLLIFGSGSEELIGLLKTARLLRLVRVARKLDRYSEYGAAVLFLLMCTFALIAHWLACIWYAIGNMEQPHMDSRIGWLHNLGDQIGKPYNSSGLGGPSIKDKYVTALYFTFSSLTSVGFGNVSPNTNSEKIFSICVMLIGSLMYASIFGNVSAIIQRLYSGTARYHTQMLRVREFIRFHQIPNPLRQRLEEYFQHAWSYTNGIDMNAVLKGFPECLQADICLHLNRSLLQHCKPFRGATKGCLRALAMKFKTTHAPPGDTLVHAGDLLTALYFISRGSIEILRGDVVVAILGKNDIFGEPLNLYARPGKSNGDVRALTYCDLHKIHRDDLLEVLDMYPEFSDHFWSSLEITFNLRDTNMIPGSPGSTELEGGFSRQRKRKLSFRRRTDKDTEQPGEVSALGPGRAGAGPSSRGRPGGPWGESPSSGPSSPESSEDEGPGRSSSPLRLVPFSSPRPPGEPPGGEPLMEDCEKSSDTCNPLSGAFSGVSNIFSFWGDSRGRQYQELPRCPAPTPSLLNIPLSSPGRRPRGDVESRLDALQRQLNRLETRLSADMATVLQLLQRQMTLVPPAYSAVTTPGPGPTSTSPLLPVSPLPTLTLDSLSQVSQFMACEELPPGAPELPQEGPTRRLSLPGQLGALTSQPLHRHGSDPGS

Compound | hERG current change (%, negative = inhibition) at 10uM [%]
CC(C)(CNC(=O)COc1ccccc1Cc1ccccc1)N1CCOCC1 | -55.6
C=CCOc1cccc(C2/C(=C(/O)c3ccccc3)C(=O)C(=O)N2CCN2CCOCC2)c1 (centres unmarked) | 4.36
CCCN(C(=O)c1cccc(S(=O)(=O)N2CCN(Cc3ccccc3)CC2)c1)C1CCS(=O)(=O)C1 (centres unmarked) | -17.3
CCOC(=O)C1=C(CN2CCN(CCC#N)CC2)NC(=O)NC1c1ccc2c(c1)OCO2 (centres unmarked) | -27.2
CN(CC(=O)Nc1ccc(F)c(F)c1F)C(=O)c1ccc2c(c1)S(=O)(=O)N=C1CCCCCN12 | -18.7
CC(=O)NCCc1cc2ccc(C)c(C)c2[nH]c1=O | 10.1
Cc1ccc(C(=O)/C=C/N(C)C)o1 | 22.7
COc1cc(OC)cc(C(=O)OCC(=O)Nc2ccc3[nH]c(=O)[nH]c3c2)c1 | -2.68
O=C(COC(=O)c1ncc(Cl)c(Cl)c1Cl)Nc1ccc(Cl)cn1 | -43.4
CCOc1ccccc1OCC(=O)Nc1cccc(S(=O)(=O)N2CCCCCC2)c1 | -43.6
CCC(=O)C1CCCN(C(=O)CCc2nnc(-c3ccc4c(c3)OCO4)o2)C1 (centres unmarked) | -8.82
CSc1cc(-c2ccccc2)n(Cc2c(Cl)cccc2Cl)c(=O)c1C#N | 13.7
COc1ccc(Cl)cc1NC(=S)N1CCN(C(=O)C2CCCO2)CC1 (centres unmarked) | 17.7
C(=N\Nc1nc2ccccc2[nH]1)/c1ccc2c(c1)OCCO2 | 10.9
Cc1cc(NN)nc(Cc2ccccc2)n1 | 10.2
Cc1cc(OCC(O)CN2CCc3ccccc3C2)cc(C(C)C)c1.Cl (centres unmarked) | -56.2
S=C(NCc1ccccc1)NC1CCSc2ccccc21 (centres unmarked) | 13.2
CCOC(=O)c1nnn(-c2nonc2N)c1-c1ccc(F)cc1 | 2.11
Cc1nn(-c2ccc(C(=O)N3CCN(S(=O)(=O)c4ccccc4C(F)(F)F)CC3)cc2)c(C)c1Cl | -23.8
Cc1cccc(NC(=S)N2CCC(N(C)CC3CCCO3)CC2)c1C (centres unmarked) | -12.5
O=C(Nc1cccc(Cl)c1)OCCOc1ccccc1 | 23
COc1ccc(C(=O)C(OC(=O)c2ccc(C)c(NC(C)=O)c2)c2ccccc2)cc1 (centres unmarked) | -7.69
COc1ccccc1NS(=O)(=O)c1cc(NC(=O)C2CCCC2)ccc1N1CCOCC1 | -3.08

Compound | hERG current change (%, negative = inhibition) at 10uM [%]
Cc1cc(-c2ccc(Cl)cc2)c(C#N)c(N)n1 | -5.49
CN(C)CCOC(=O)c1ccc2[nH]c3c(c2c1)CSCC3.Cl | 12
O=C(NNC(=S)NCc1ccco1)c1ccc(Cl)s1 | 14.5
CCN(CC1CCCN(CCc2cccc(F)c2)C1)C(=O)c1cc2ccccc2o1 (centres unmarked) | -79.6
COCCNC(=O)c1ccc(N2CC3CC(C2)c2cccc(=O)n2C3)c([N+](=O)[O-])c1 (centres unmarked) | 21.4
COc1ccc(S(=O)(=O)Nc2cccc(C(C)=O)c2)cc1Br | -7.05
Cc1ccc(S(=O)(=O)N2CCN(C(=O)CCc3c[nH]c4ccccc34)CC2)cc1 | -23.1
CCC(=O)Nc1ccc(C(=O)N/N=C/c2ccc([N+](=O)[O-])cc2)cc1 | 1.92
COc1ccc(S(=O)(=O)N2CCCCC2C(=O)O)cc1 (centres unmarked) | -0.249
N#Cc1c(N)n(-c2ccc(C(=O)O)cc2)c2nc3ccccc3nc12 | -4.58
O=C(c1ccccc1)c1ncc[nH]1 | 26.1
CN1CCCC1c1cccnc1 (centres unmarked) | 15.6
CCOC(=O)[C@H]1[C@H]2COc3ccc(C)cc3[C@@H]2N2C(=O)CN(Cc3ccc(C)cc3)C(=O)[C@@]12C | 4.36
C/C(=N\NC(=O)c1ccc(C)cc1C)c1ccc2c(c1)OCO2 | 0.256
NC(=O)C1CCN(C(=O)c2ccc(NS(=O)(=O)c3ccc(F)cc3)cc2)CC1 | 6.76
Cc1ccc(-n2nc3c(SCCN4CCOCC4)nnc(C)c3c2C)cc1 | -28.8
N#CCC(=O)Nc1ccc(C(=O)N2CCN(c3ccccn3)CC2)cc1 | 18.4
O=C1Nc2ccccc2O/C1=C\c1c(F)cccc1Cl | 11.5
CC(C)C(=O)Nc1ccc2nn(-c3ccccc3)nc2c1 | 5.03
CCOc1ccc(NC(=O)CN(C)C(=O)c2cc3c(s2)CCC(C)C3)cc1OCC (centres unmarked) | -12.6
CCOC(=O)c1oc2ccccc2c1NC(=O)c1ccc(S(=O)(=O)N(C)C)cc1 | 13
COc1ccc(/C=N/Nc2ccccc2C(=O)O)cc1Cn1cc([N+](=O)[O-])cn1 | -9.05
Cn1c(=O)c2c(nc3sccn32)n(C)c1=O | -9.86

Compound | hERG current change (%, negative = inhibition) at 10uM [%]
CN(C)CCCNC(=O)C1(O)c2cc(Br)ccc2NC(=O)N1c1c(F)cccc1F (centres unmarked) | 7.1
O=C(NC1CCCC1)c1ccc(COCC(F)(F)C(F)F)o1 | -13.1
O=C1NC2(CCCCCC2)C(=O)N1Cc1ccccc1Cl | 5.29
CN(C)CCN(Cc1ccco1)S(=O)(=O)c1ccc(-c2ccc(=O)[nH]n2)s1 | -64.4
CC1(C)C(=O)Nc2ccccc2N1C(=O)CSc1nc(-c2ccccc2)cs1 | 3.65
Cc1cc(OCc2nn[nH]n2)c2c(-c3ccccc3)cc(=O)oc2c1 | -6.11
CCc1ccc(N2C(=O)/C(=C/c3cccs3)N(CC(=O)OC)C2=S)cc1 | 0.511
Cn1c(SCC(=O)NC(=O)NCc2ccco2)nnc1-c1ccccc1 | 3.4
C/C(=N\NC(=S)NCc1ccccc1)c1ccccc1F | 9.46
COc1cc(NC(=O)c2cccc(COCC(F)(F)C(F)F)c2)cc(OC)c1OC | -18.5
CN(C(=O)C1CCOC1)c1nnc(-c2ccncc2)s1 (centres unmarked) | 5.62
Cc1ccc(/C=N/NC(=O)C(=O)N/N=C/c2ccc(C)o2)o1 | 1.84
CCC(C)c1ccccc1N1CC(C(=O)N2CCN(C(=O)c3ccco3)CC2)CC1=O (centres unmarked) | -12.6
Cc1ccc(CN2C3=NC(=O)CN3c3ccccc32)cc1 | -5.41
Cc1ccc(-c2nc(CN(Cc3cnn(C)c3)C(C)C)c(C)o2)o1 | -21.5
CCOC(=O)C(Cc1c(F)cccc1Cl)c1ccnc2nc(N)nn12 (centres unmarked) | 0.868
Brc1ccc(-c2cn3cccnc3n2)cc1 | 6.71
Cc1[nH]c2ccccc2c1C(=O)CN1CC(C)OC(C)C1 (centres unmarked) | 13.4
Brc1ccc(N=Cc2ccccn2)cc1 | -0.925
C/C(=N/OC(=O)c1ccc(F)cc1)c1ccc(C)cc1 | 12.3
O=C(CNS(=O)(=O)c1ccccc1Br)OCC(=O)N1CCc2ccccc21 | -9.13
COC(=O)c1ccccc1NC(=O)CSc1ccccn1 | -7.67
CCc1ccc2nc(Nc3ncc(C(C)=O)c(C)n3)nc(C)c2c1 | 8.74

Compound | hERG current change (%, negative = inhibition) at 10uM [%]
CCc1ccc(/C(C)=N/NC(=O)CNC(=O)/C=C/c2ccco2)cc1 | 5.75
CCCCNC(=O)c1onc(CSc2cc(C)cc(C)c2)c1C(=O)O | 7.84
O=C(Nc1ccc(-c2noc(CCc3ccccc3)n2)cc1)c1cccnc1 | -8.2
CC1=C(C#N)CCC(=O)N1Cc1ccc(C)cc1 | 6.81
CC(C)(C)NC(=O)CN(C(=O)C(=O)Nc1ccc2c(c1)OCCO2)C(C)(C)C | -3.18
Cc1nc(Cl)sc1C(=O)Nc1ccc(C(C)(C)C)cc1 | 3.09
Nc1c(N(Cc2ccco2)C(=O)COc2ccccc2F)c(=O)[nH]c(=O)n1Cc1ccccc1 | 0.883
O=C(Cc1ccccc1)N/N=C/C=C/c1cccc([N+](=O)[O-])c1 | -1.29
COc1ccc(CCNCC(O)Cn2ccc3ccccc32)cc1OC (centres unmarked) | -30.6
N/C(CCCN1CCCCC1)=N/O | 12.4
O=C(CN(c1ccccn1)S(=O)(=O)c1ccc(F)cc1)Nc1ccccc1 | 7.79
Cc1ccc2cc3cc(C(=O)NCCCN4CCCCCC4)oc3nc2c1 | -50.6
COC(=O)c1ccc(OC(C)C(=O)c2ccc(C)cc2)cc1 (centres unmarked) | -21.5
Cc1cc(Oc2ccc(N)cn2)cc(C)c1Cl | -8.95
O=C(CN(C(=O)CNS(=O)(=O)c1ccc(F)cc1)c1ccc(F)cc1)NCc1ccco1 | 2.45
CCOC(=O)N1CCN(C(=O)COc2ccc(Cl)cc2)CC1 | -10.3
CCCCN(C(=O)c1ccc2c(c1)OCO2)c1c(N)n(CC(C)C)c(=O)[nH]c1=O | -6.58
O=C(O)COc1ccc(NC(=O)c2ccc3c(c2)C(=O)N(Cc2ccccc2)C3=O)cc1 | 4.46
CN(CC(=O)NC1CCCCCC1)S(=O)(=O)c1ccc(Br)cc1 | 9.13
CCOC(=O)N1CCN(Cc2c(F)cccc2F)CC1 | 18.5
